Data taken from PubChem BioAssay (NCATS).
This list was built around the results that the source calls inconclusive (neither active nor inactive); the mix of calls is not that of the screen. Active and inactive are the calls of the source. Calls follow the shape of the dose curve; as a rule, active = well fitted curve in either direction with a large enough effect (not every such curve was filed as active); inconclusive = small, poorly fitted or top-dose-only effect, or another doubt; inactive = flat fitted curve, though single readings scatter.

Test: NFAT Signaling Pathway (AID 444);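 also: carbachol stimulus at about its EC50 of 1 µM final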
Conditions: Jurkat NFAT-bla M1, carbachol, beta-lactamase ratio, 5 h; at 7.69 µM (top of the series) unless noted
In short: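 Jurkat cells carrying an NFAT-driven β-lactamase reporter and co-transfected muscarinic M1 receptor were treated with compound plus carbachol (1 uM final, an EC50 level) for 5 h at 37 °C. CCF4 loading followed for 1 h at RT; 460/530 nm ratio gave %activity.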
% is scaled to controls: 0 for no effect and ±100 for the full control effect.

Structure (SMILES) | activity change, negative = inhibition
CC(C)[C@H]1C(=O)N2CCC[C@H]2[C@]2(O)O[C@](NC(=O)[C@@H]3C=C4c5cccc6[nH]cc(c56)C[C@H]4N(C)C3)(C(C)C)C(=O)N12 | inconclusive: -83.1% [inhibitor] [at 17.2 µM]
O=C(c1ccncc1)N1CCC2(CC1)CN(Cc1ccccc1)C2 | inconclusive: -62.9% [inhibitor]
COc1cc2c(cc1OC)[C@@]13CCN4CC5=CCO[C@H](CC(=O)O)[C@@H]([C@H]1N2)[C@H]5C[C@H]43 | inactive: 9.02%
O=C(O)C[C@H]1OCC=C2CN3CC[C@]45c6ccccc6N[C@@H]4[C@H]1[C@H]2C[C@H]35 | inactive: -1.05%
Cn1c(O)c(C=NC2CCN(Cc3ccccc3)CC2)c(=O)n(C)c1=O | inconclusive: -33% [inhibitor] [at 17.2 µM]
N[C@@H](CP(=O)(O)O)C(=O)O | inactive: 2.91%
N#CCCCC[N+]12CN3CN(CN(C3)C1)C2 | inactive: 5.06%
CCOc1ccccc1-n1c(O)c(C=Nc2ccc(N(CC)CC)cc2)c(=O)[nH]c1=O | inconclusive: -48.4% [inhibitor] [at 17.2 µM]
CCOc1ccccc1-n1c(O)c(C=Nc2c(C)n(C)n(-c3ccccc3)c2=O)c(=O)[nH]c1=O | inconclusive: -43.1% [inhibitor] [at 17.2 µM]
COc1ccc(Cn2c(O)c(C=NCCCn3ccnc3)c(=O)[nH]c2=O)cc1 | inactive: -15.1% [at 17.2 µM]
CC1(C)N=C(N)N=C(N)N1c1cccc(C(=O)Nc2ccc(S(=O)(=O)F)cc2)c1 | inconclusive: -61.7% [inhibitor]
